Experimental data reported in article PMC5440646, “T Cell Costimulation by CD6 Is Dependent on Bivalent Binding of a GADS/SLP-76 Complex” (Molecular and Cellular Biology, 2017).
Substitutions are numbered along the chain they refer to. Results are given in words; binding and its absence hold for the method and conditions named. In cells and extracts the contact can be indirect. Some results given as binding are weak or reduced against the parent protein; the word gives no strength. Where a sequence is shown, tags or fusion partners need not be part of it.

T1: human CD6 Y629F single mutant fused to EGFP (human) (UniProt P30203)
T1 sequence: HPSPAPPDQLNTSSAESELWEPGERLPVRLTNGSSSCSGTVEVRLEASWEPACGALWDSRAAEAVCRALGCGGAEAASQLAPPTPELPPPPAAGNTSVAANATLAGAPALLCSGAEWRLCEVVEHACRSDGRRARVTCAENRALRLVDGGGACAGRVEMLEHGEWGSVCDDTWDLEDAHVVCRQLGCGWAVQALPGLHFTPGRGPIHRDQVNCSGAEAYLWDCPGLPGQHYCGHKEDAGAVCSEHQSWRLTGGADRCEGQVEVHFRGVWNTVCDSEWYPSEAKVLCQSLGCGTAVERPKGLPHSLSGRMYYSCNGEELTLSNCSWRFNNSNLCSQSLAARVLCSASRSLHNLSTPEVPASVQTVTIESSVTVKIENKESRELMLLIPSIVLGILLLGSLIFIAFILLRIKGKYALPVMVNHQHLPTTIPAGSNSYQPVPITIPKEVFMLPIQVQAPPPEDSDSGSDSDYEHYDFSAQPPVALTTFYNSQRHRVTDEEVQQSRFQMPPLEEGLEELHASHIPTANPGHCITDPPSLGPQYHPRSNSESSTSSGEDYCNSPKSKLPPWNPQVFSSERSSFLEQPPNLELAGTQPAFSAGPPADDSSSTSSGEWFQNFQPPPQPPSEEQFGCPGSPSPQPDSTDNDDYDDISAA

T2: human CD6 Y629F Y662F double mutant fused to EGFP (human) (UniProt P30203)
T2 sequence: T1 sequence with Y645F

T3: human CD6 Y662F single mutant fused to EGFP (human) (UniProt P30203)
T3 sequence: T1 sequence with F612Y, Y645F

T4: human CD6 fused to EGFP (human) (UniProt P30203)
T4 sequence: T1 sequence with F612Y

B1: SH2 domain-containing leukocyte molecule of 76 kDa (SLP-76), endogenous (protein, UniProt Q13094 1-533)
chain: MALRNVPFRSEVLGWDPDSLADYFKKLNYKDCEKAVKKYHIDGARFLNLTENDIQKFPKLRVPILSKLSQEINKNEERRSIFTRKPQVPRFPEETESHEEDNGGWSSFEEDDYESPNDDQDGEDDGDYESPNEEEEAPVEDDADYEPPPSNDEEALQNSILPAKPFPNSNSMYIDRPPSGKTPQQPPVPPQRPMAALPPPPAGRNHSPLPPPQTNHEEPSRSRNHKTAKLPAPSIDRSTKPPLDRSLAPFDREPFTLGKKPPFSDKPSIPAGRSLGEHLPKIQKPPLPPTTERHERSSPLPGKKPPVPKHGWGPDRRENDEDDVHQRPLPQPALLPMSSNTFPSRSTKPSPMNPLPSSHMPGAFSESNSSFPQSASLPPYFSQGPSNRPPIRAEGRNFPLPLPNKPRPPSPAEEENSLNEEWYVSYITRPEAEAALRKINQDGTFLVRDSSKKTTTNPYVLMVLYKDKVYNIQIRYQKESQVYLLGTGLRGKEDFLSVSDIIDYFRKMPLLLIDGKNRGSRYQCTLTHAAGYP
B2: GRB2-related adaptor downstream of Shc (GADS), endogenous (protein, UniProt O75791 1-330)
chain: MEAVAKFDFTASGEDELSFHTGDVLKILSNQEEWFKAELGSQEGYVPKNFIDIQFPKWFHEGLSRHQAENLLMGKEVGFFIIRASQSSPGDFSISVRHEDDVQHFKVMRDNKGNYFLWTEKFPSLNKLVDYYRTNSISRQKQIFLRDRTREDQGHRGNSLDRRSQGGPHLSGAVGEEIRPSMNRKLSDHPPTLPLQQHQHQPQPPQYAPAPQQLQQPPQQRYLQHHHFHQERRGGSLDINDGHCGTGLGSEMNAALMHRRHTDPVQLQAAGRVRWARALYDFEALEDDELGFHSGEVVEVLDSSNPSWWTGRLHNKLGLFPANYVAPMTR

What was measured:
Assay in all cases: co-IP; Jurkat cells transduced with CD6-EGFP or mutants, treated with pervanadate, lysed in 1% Triton X-100; CD6 immunoprecipitated with CD6 MAb MEM-98 and protein A/G beads; Western blots for SLP-76, GADS, TSAd, GRB2, EGFP
[1] = biological target: T1, human CD6 Y629F single mutant fused to EGFP (human)
[2] = biological target: T2, human CD6 Y629F Y662F double mutant fused to EGFP (human)
[3] = biological target: T3, human CD6 Y662F single mutant fused to EGFP (human)
[4] = biological target: T4, human CD6 fused to EGFP (human)

| Binder | binding [1] | binding [2] | binding [3] | binding [4] |
| --- | --- | --- | --- | --- |
| B1 | binds | no binding | binds | binds |
| B2 | binds | no binding | binds |  |
